Measured values as given in the supplement of paper PMC8728848.
This is one part of the list.

Key:
Test in all cases: glycan array binding signal (z-score within array); higher = stronger binding
Settings in all cases: glycan notation: IUPAC condensed, linker removed
Fuc(a1-2)Gal = target: Fuc(a1-2)Gal
How it was run: (§1)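 The binding signal is a Z-score computed within each array. Data were drawn from 3228 arrays in the Consortium for Functional Glycomics database, restricted to those with a known protein sequence. Scores were averaged over arrays of the same protein sequence at different concentrations or buffers, and over linkers, and negative values can be taken as non-binding.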

Fuc(a1-2)Gal(b1-3)GalNAc = target: Fuc(a1-2)Gal(b1-3)GalNAc
How it was run: as §1

[1] = target: Fuc(a1-2)Gal(b1-3)GalNAc(a1-3)[Fuc(a1-2)]Gal(b1-4)Glc
How it was run: as §1

[2] = target: Fuc(a1-2)Gal(b1-3)GalNAc(a1-3)[Fuc(a1-2)]Gal(b1-4)GlcNAc
How it was run: as §1

[3] = target: Fuc(a1-2)Gal(b1-3)GalNAc(b1-3)Gal
How it was run: as §1

[4] = target: Fuc(a1-2)Gal(b1-3)GalNAc(b1-3)Gal(a1-4)Gal(b1-4)Glc
How it was run: as §1

[5] = target: Fuc(a1-2)Gal(b1-3)GalNAc(b1-4)[Neu5Ac(a2-3)]Gal(b1-4)Glc
How it was run: as §1

Fuc(a1-2)Gal(b1-3)GlcNAc = target: Fuc(a1-2)Gal(b1-3)GlcNAc
How it was run: as §1

[6] = target: Fuc(a1-2)Gal(b1-3)GlcNAc(b1-2)Man(a1-3)[Fuc(a1-2)Gal(b1-3)GlcNAc(b1-2)Man(a1-6)]Man(b1-4)GlcNAc(b1-4)GlcNAc
How it was run: as §1

[7] = target: Fuc(a1-2)Gal(b1-3)GlcNAc(b1-2)Man(a1-3)[Fuc(a1-2)Gal(b1-3)GlcNAc(b1-2)Man(a1-6)]Man(b1-4)GlcNAc(b1-4)[Fuc(a1-6)]GlcNAc
How it was run: as §1

[8] = target: Fuc(a1-2)Gal(b1-3)GlcNAc(b1-3)Gal(b1-4)Glc
How it was run: as §1

[9] = target: Fuc(a1-2)Gal(b1-3)GlcNAc(b1-3)GalNAc
How it was run: as §1

[10] = target: Fuc(a1-2)Gal(b1-3)GlcNAc(b1-3)[Fuc(a1-2)Gal(b1-3)GlcNAc(b1-6)]GalNAc
How it was run: as §1

[11] = target: Fuc(a1-2)Gal(b1-3)GlcNAc(b1-3)[Gal(b1-4)GlcNAc(b1-6)]Gal(b1-4)Glc
How it was run: as §1

[12] = target: Fuc(a1-2)Gal(b1-3)GlcNAc(b1-3)[Neu5Ac(a2-6)Gal(b1-4)GlcNAc(b1-6)]Gal(b1-4)Glc
How it was run: as §1

[13] = target: Fuc(a1-2)Gal(b1-3)GlcNAc6S
How it was run: as §1

[14] = target: Fuc(a1-2)Gal(b1-3)[Fuc(a1-4)]GlcNAc
How it was run: as §1

[15] = target: Fuc(a1-2)Gal(b1-3)[Fuc(a1-4)]GlcNAc(b1-2)Man(a1-3)[Fuc(a1-2)Gal(b1-3)[Fuc(a1-4)]GlcNAc(b1-2)Man(a1-3)]Man(b1-4)GlcNAc(b1-4)GlcNAc
How it was run: as §1

[16] = target: Fuc(a1-2)Gal(b1-3)[Fuc(a1-4)]GlcNAc(b1-2)Man(a1-3)[Fuc(a1-2)Gal(b1-3)[Fuc(a1-4)]GlcNAc(b1-2)Man(a1-6)]Man(b1-4)GlcNAc(b1-4)[Fuc(a1-6)]GlcNAc(b1-4)[Fuc(a1-6)]GlcNAc
How it was run: as §1

[17] = target: Fuc(a1-2)Gal(b1-3)[Fuc(a1-4)]GlcNAc(b1-3)[Fuc(a1-3)[Gal(b1-4)]GlcNAc(b1-6)]Gal(b1-4)Glc
How it was run: as §1

[18] = target: Fuc(a1-2)Gal(b1-3)[Fuc(a1-4)]GlcNAc(b1-3)[Gal(b1-4)GlcNAc(b1-6)]Gal(b1-4)Glc
How it was run: as §1

Fuc(a1-2)Gal(b1-4)Glc = target: Fuc(a1-2)Gal(b1-4)Glc
How it was run: as §1

Fuc(a1-2)Gal(b1-4)Glc6S = target: Fuc(a1-2)Gal(b1-4)Glc6S
How it was run: as §1

Fuc(a1-2)Gal(b1-4)GlcNAc = target: Fuc(a1-2)Gal(b1-4)GlcNAc
How it was run: as §1

[19] = target: Fuc(a1-2)Gal(b1-4)GlcNAc(b1-2)Man
How it was run: as §1

[20] = target: Fuc(a1-2)Gal(b1-4)GlcNAc(b1-2)Man(a1-3)[Fuc(a1-2)Gal(b1-4)GlcNAc(b1-2)Man(a1-6)]Man(b1-4)GlcNAc(b1-4)GlcNAc
How it was run: as §1

[21] = target: Fuc(a1-2)Gal(b1-4)GlcNAc(b1-2)Man(a1-3)[Fuc(a1-2)Gal(b1-4)GlcNAc(b1-2)Man(a1-6)]Man(b1-4)GlcNAc(b1-4)[Fuc(a1-6)]GlcNAc
How it was run: as §1

[22] = target: Fuc(a1-2)Gal(b1-4)GlcNAc(b1-2)[Fuc(a1-2)Gal(b1-4)GlcNAc(b1-4)]Man(a1-3)[Fuc(a1-2)Gal(b1-4)GlcNAc(b1-2)Man(a1-6)]Man(b1-4)GlcNAc(b1-4)GlcNAc
How it was run: as §1

[23] = target: Fuc(a1-2)Gal(b1-4)GlcNAc(b1-3)Gal(b1-4)GlcNAc
How it was run: as §1

[24] = target: Fuc(a1-2)Gal(b1-4)GlcNAc(b1-3)Gal(b1-4)GlcNAc(b1-2)Man(a1-3)[Fuc(a1-2)Gal(b1-4)GlcNAc(b1-3)Gal(b1-4)GlcNAc(b1-2)Man(a1-6)]Man(b1-4)GlcNAc(b1-4)GlcNAc
How it was run: as §1

[25] = target: Fuc(a1-2)Gal(b1-4)GlcNAc(b1-3)Gal(b1-4)GlcNAc(b1-3)Gal(b1-4)GlcNAc
How it was run: as §1

[26] = target: Fuc(a1-2)Gal(b1-4)GlcNAc(b1-3)GalNAc
How it was run: as §1

[27] = target: Fuc(a1-2)Gal(b1-4)GlcNAc(b1-3)[Fuc(a1-2)Gal(b1-4)GlcNAc(b1-6)]GalNAc
How it was run: as §1

[28] = target: Fuc(a1-2)Gal(b1-4)GlcNAc(b1-3)[Fuc(a1-3)[Gal(b1-4)]GlcNAc(b1-6)]Gal(b1-4)Glc
How it was run: as §1

[29] = target: Fuc(a1-2)Gal(b1-4)GlcNAc(b1-6)GalNAc
How it was run: as §1

[30] = target: Fuc(a1-2)Gal(b1-4)GlcNAc6S
How it was run: as §1

[31] = target: Fuc(a1-2)Gal(b1-4)[Fuc(a1-3)]GlcNAc
How it was run: as §1

B1: ClecSol-Fc (Cryptosporidium parvum) (protein)
chain: CPEGWISNGEKTRCFKLVTFDRPRTFSHGFKACNDLGGTEVETRRRNGSKETNEYPVTLASVYKLSDEEAIRRTLVEQGDIHKTANGCFVGLRKYAFFRYPPGWYWIDSGSPVSVRDSEINWTSSYNASWLLRFKFPFEKCGFFDIGGLGRRPCWLIDSELSCAVCGTVAYDSGGLNPNKYSELIKQTDEIISKEPKLDLPGYNNLNCTDAWENNLSVGLCQNVSNILDSAWSSYQSSLNFPSINFNWKEDSTNEGGDQVYHNSYLDLPRYKQKKTFYWDQDPGTIPALSDEMKLIGLSAQPTYHPLDRSSSGSFESDSTESGRANEERNDTLEEMIYKQSSDSIEDILVPVTKPIFSDYSSIGRNSGVEEVYSSNVSTISSKGVVFPNTTTSSDNDFTKNNPANSSKHTSTSTTTNTTTTTTRTTTTTTTTTTTTTTTTTTTTETTTTKKSTTATKNTTTT
glycan array binding signal (z-score) (Fuc(a1-2)Gal): -0.23
glycan array binding signal (z-score) (Fuc(a1-2)Gal(b1-3)GalNAc): -0.212
glycan array binding signal (z-score) [1]: -0.07
glycan array binding signal (z-score) [2]: 0.031
glycan array binding signal (z-score) [3]: -0.223
glycan array binding signal (z-score) [4]: -0.029
glycan array binding signal (z-score) [5]: -0.167
glycan array binding signal (z-score) (Fuc(a1-2)Gal(b1-3)GlcNAc): -0.193
glycan array binding signal (z-score) [6]: 0.169
glycan array binding signal (z-score) [7]: 0.078
glycan array binding signal (z-score) [8]: -0.209
glycan array binding signal (z-score) [9]: 0.073
glycan array binding signal (z-score) [10]: -0.169
glycan array binding signal (z-score) [11]: 0.047
glycan array binding signal (z-score) [12]: -0.161
glycan array binding signal (z-score) [13]: -0.129
glycan array binding signal (z-score) [14]: -0.087
glycan array binding signal (z-score) [15]: -0.179
glycan array binding signal (z-score) [16]: -0.14
glycan array binding signal (z-score) [17]: -0.228
glycan array binding signal (z-score) [18]: -0.122
glycan array binding signal (z-score) (Fuc(a1-2)Gal(b1-4)Glc): -0.174
glycan array binding signal (z-score) (Fuc(a1-2)Gal(b1-4)Glc6S): 0.153
glycan array binding signal (z-score) (Fuc(a1-2)Gal(b1-4)GlcNAc): -0.125
glycan array binding signal (z-score) [19]: -0.1
glycan array binding signal (z-score) [20]: -0.039
glycan array binding signal (z-score) [21]: -0.087
glycan array binding signal (z-score) [22]: -0.195
glycan array binding signal (z-score) [23]: -0.091
glycan array binding signal (z-score) [24]: -0.154
glycan array binding signal (z-score) [25]: -0.03
glycan array binding signal (z-score) [26]: -0.207
glycan array binding signal (z-score) [27]: -0.098
glycan array binding signal (z-score) [28]: 0.13
glycan array binding signal (z-score) [29]: 0.51
glycan array binding signal (z-score) [30]: -0.009
glycan array binding signal (z-score) [31]: -0.209
